Laboratory results published in paper PMC4336329 (PLoS ONE, 2015).
Out of some 310,000 compounds screened, about 14,000 (4.5%) showed an effect of 50% or more. The effect is printed as a negative number. Some of the results follow.

biological target: human ether-à-go-go-related gene (hERG) potassium channel (human, UniProt Q12809); test: primary screen, population patch clamp on CHO cells stably expressing hERG
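Further: peak tail current of the secondary pulse compared with the same well before compound.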

Chain of human ether-à-go-go-related gene (hERG) potassium channel (Q12809 whole entry, looked up): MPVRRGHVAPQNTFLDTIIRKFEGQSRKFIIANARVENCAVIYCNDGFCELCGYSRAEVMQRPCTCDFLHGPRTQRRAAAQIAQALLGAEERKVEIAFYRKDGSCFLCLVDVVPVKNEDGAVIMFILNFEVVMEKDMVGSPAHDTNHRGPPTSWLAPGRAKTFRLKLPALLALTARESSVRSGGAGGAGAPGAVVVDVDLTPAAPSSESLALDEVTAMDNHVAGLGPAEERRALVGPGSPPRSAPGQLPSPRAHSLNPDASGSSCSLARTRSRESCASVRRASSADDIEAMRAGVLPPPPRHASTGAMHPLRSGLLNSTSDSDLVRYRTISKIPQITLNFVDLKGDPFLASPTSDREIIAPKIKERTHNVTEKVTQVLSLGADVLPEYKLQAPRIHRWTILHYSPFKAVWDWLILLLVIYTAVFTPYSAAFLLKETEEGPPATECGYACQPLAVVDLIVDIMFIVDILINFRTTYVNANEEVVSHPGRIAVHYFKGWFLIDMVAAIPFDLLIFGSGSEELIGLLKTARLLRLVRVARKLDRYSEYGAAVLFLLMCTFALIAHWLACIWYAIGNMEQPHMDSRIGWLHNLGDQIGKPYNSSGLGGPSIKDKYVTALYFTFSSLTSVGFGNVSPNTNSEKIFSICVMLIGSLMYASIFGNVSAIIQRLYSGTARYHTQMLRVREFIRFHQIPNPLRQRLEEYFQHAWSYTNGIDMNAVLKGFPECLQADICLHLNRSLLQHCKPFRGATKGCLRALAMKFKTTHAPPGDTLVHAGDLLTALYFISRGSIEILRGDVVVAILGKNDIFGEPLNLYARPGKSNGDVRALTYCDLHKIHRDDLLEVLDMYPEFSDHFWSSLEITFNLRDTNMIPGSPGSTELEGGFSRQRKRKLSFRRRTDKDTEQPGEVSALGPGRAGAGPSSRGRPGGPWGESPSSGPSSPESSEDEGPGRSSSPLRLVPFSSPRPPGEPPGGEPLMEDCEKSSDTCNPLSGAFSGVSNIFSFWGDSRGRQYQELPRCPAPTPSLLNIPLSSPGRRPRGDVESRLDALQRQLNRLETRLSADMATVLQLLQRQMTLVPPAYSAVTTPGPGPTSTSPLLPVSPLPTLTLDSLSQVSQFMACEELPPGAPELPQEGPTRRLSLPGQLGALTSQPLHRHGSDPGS

| Compound | hERG current change (%, negative = inhibition) at 10uM [%] |
| --- | --- |
| NNC(=S)NCc1cccnc1 | -3.79 |
| CCN(CC)c1ccccc1 | 12.7 |
| CCOc1ccc(NC(=O)NN2C(C)CCCC2C)cc1 (stereo not shown) | 13 |
| O=C(c1ccco1)N1CCN(S(=O)(=O)c2ccc(Oc3ccccc3)cc2)CC1 | -31.5 |
| O=C(c1cc(-c2ccncc2)nc2ccccc12)N1CCC2(CC1)OCCO2 | -25.9 |
| CCC1CCc2c(sc(NC(=O)c3ccoc3C)c2C(N)=O)C1 (stereo not shown) | 8.48 |
| CCCCNc1c([N+](=O)[O-])cc(C)cc1[N+](=O)[O-] | -4.19 |
| CCOc1ccc2c(c1)N(C(=O)CN1C(=O)CCC1=O)C(C)(C)C=C2C | -22.8 |
| Fc1ccc(N2CCN(/C=C/c3nnnn3-c3ccccc3)CC2)cc1 | -32 |
| CCC(C)(C)NC(=O)C(C)OC(=O)c1nsc(Cl)c1Cl (stereo not shown) | 0.462 |
| CCOc1ccccc1NC(=O)c1cc(CC(C)C)oc1C | -0.536 |
| Cc1cc(NC(=O)c2ccccc2)ccc1NC(=O)Cc1ccccc1 | 5.89 |
| CN(CC(=O)Nc1ccccc1C(F)(F)F)C(=O)c1ccc(-c2ccc(Cl)cc2)o1 | -13.7 |
| O=C(O)CN1C(=O)/C(=C/c2ccsc2)SC1=S | 20.7 |
| COC(=O)c1ccc(CSc2nnc(-c3ccc4c(c3)OCO4)n2-c2ccccc2)o1 | -1.99 |
| Cc1ccn(S(=O)(=O)c2ccc3oc(=O)ccc3c2)n1 | 13.3 |
| CCCC(=O)Nc1ccc(NC(=O)c2ccccc2F)cn1 | 8.14 |
| COc1ccccc1-n1c(O)c(C=NCc2ccccn2)c2ccccc2c1=O | -8.58 |
| COC(=O)c1sccc1NC(=O)c1cc(-c2cccc(C)c2)nc2ccccc12 | -4.79 |
| O=C1NC2(CCCC2)C(=O)N1CCS(=O)(=O)Oc1ccccc1 | 4.89 |
| CC(C)C(=O)Nc1nnc(SCC(=O)Nc2ccc3c(c2)OCO3)s1 | 10.9 |
| CC1(C(=O)N/N=C/c2cc3c(cc2Br)OCO3)CC1(Br)Br (stereo not shown) | -7.65 |
| CCN(CC)S(=O)(=O)c1ccc(NC2c3ccccc3C(=O)N2Cc2ccco2)cc1 (stereo not shown) | -19.2 |
| COC(CNC(=O)c1c[nH]c2ccc(S(=O)(=O)N(C)c3ccc(F)cc3)cc2c1=O)OC | 3.15 |
| COc1cc2cc(CCOC(=O)c3ccc(C#N)cc3)oc(=O)c2cc1OC | -37.9 |
